Measured values from the supplement of paper PMC8728848.
The other results are listed elsewhere or left out.

What was measured:
Test in all cases: glycan array binding signal (z-score within array); higher = stronger binding
Conditions in all cases: glycan notation: IUPAC condensed, linker removed
Fuc(b1-3)GlcNAc = biological target: Fuc(b1-3)GlcNAc
Method in brief: (§1)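 From the Consortium for Functional Glycomics database, 3228 arrays were curated, keeping only those whose protein sequence was available. Binding is given as a within-array Z-score averaged across arrays sharing a protein sequence and across linkers. Negative Z-scores can be read as non-binding.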

Gal(a1-2)Gal = biological target: Gal(a1-2)Gal
Method in brief: as §1

Gal(a1-3)Gal = biological target: Gal(a1-3)Gal
Method in brief: as §1

Gal(a1-3)Gal(b1-3)Glc = biological target: Gal(a1-3)Gal(b1-3)Glc
Method in brief: as §1

Gal(a1-3)Gal(b1-3)GlcNAc = biological target: Gal(a1-3)Gal(b1-3)GlcNAc
Method in brief: as §1

Gal(a1-3)Gal(b1-4)GlcNAc = biological target: Gal(a1-3)Gal(b1-4)GlcNAc
Method in brief: as §1

[1] = biological target: Gal(a1-3)Gal(b1-4)[Fuc(a1-3)]GalNAc
Method in brief: as §1

Gal(a1-3)GlcNAc = biological target: Gal(a1-3)GlcNAc
Method in brief: as §1

[2] = biological target: Gal(a1-3)[Gal(a1-4)]Gal(b1-4)GlcNAc
Method in brief: as §1

Gal(a1-4)Gal(b1-4)Gal = biological target: Gal(a1-4)Gal(b1-4)Gal
Method in brief: as §1

Gal(a1-4)Gal(b1-4)GalNAc = biological target: Gal(a1-4)Gal(b1-4)GalNAc
Method in brief: as §1

Gal(a1-4)GlcNAc = biological target: Gal(a1-4)GlcNAc
Method in brief: as §1

Gal(a1-6)Glc = biological target: Gal(a1-6)Glc
Method in brief: as §1

Gal(b1-2)Gal = biological target: Gal(b1-2)Gal
Method in brief: as §1

Gal(b1-3)Gal = biological target: Gal(b1-3)Gal
Method in brief: as §1

Gal(b1-3)GalNAc = biological target: Gal(b1-3)GalNAc
Method in brief: as §1

[3] = biological target: Gal(b1-3)GalNAc(b1-3)Gal(a1-4)Gal(b1-4)Glc
Method in brief: as §1

[4] = biological target: Gal(b1-3)GalNAc(b1-3)Gal(b1-4)Glc
Method in brief: as §1

[5] = biological target: Gal(b1-3)GalNAc(b1-3)Gal(b1-4)GlcNAc
Method in brief: as §1

[6] = biological target: Gal(b1-3)GalNAc(b1-4)Gal(b1-4)Glc
Method in brief: as §1

[7] = biological target: Gal(b1-3)GalNAc(b1-4)[Neu5Ac(a2-3)]Gal(b1-4)Glc
Method in brief: as §1

[8] = biological target: Gal(b1-3)GlcNAc(b1-3)Gal(b1-3)GlcNAc
Method in brief: as §1

[9] = biological target: Gal(b1-3)[Fuc(a1-4)]GlcNAc
Method in brief: as §1

[10] = biological target: Gal(b1-3)[Fuc(a1-4)]GlcNAc(b1-3)Gal(b1-3)[Fuc(a1-4)]GlcNAc
Method in brief: as §1

[11] = biological target: Gal(b1-3)[Fuc(a1-4)]GlcNAc(b1-3)Gal(b1-4)GlcNAc
Method in brief: as §1

[12] = biological target: Gal(b1-3)[Fuc(a1-4)]GlcNAc(b1-3)Gal(b1-4)[Fuc(a1-3)]GlcNAc
Method in brief: as §1

[13] = biological target: Gal(b1-3)[GlcNAc(b1-6)]GalNAc
Method in brief: as §1

[14] = biological target: Gal(b1-3)[GlcNAc(b1-6)]GlcNAc
Method in brief: as §1

[15] = biological target: Gal(b1-3)[Neu5Ac(a2-6)]GalNAc
Method in brief: as §1

[16] = biological target: Gal(b1-3)[Neu5Ac(a2-6)]GlcNAc
Method in brief: as §1

[17] = biological target: Gal(b1-3)[Neu5Ac(a2-6)]GlcNAc(a1-4)Gal(b1-4)Glc
Method in brief: as §1

[18] = biological target: Gal(b1-3)[Neu5Ac(b2-6)]GlcNAc
Method in brief: as §1

[19] = biological target: Gal(b1-4)GalNAc(a1-3)[Fuc(a1-2)]Gal(b1-4)GlcNAc
Method in brief: as §1

[20] = biological target: Gal(b1-4)GalNAc(b1-3)[Fuc(a1-2)]Gal(b1-4)GlcNAc
Method in brief: as §1

Gal(b1-4)Glc = biological target: Gal(b1-4)Glc
Method in brief: as §1

Gal(b1-4)Glc6S = biological target: Gal(b1-4)Glc6S
Method in brief: as §1

Gal(b1-4)GlcNAc = biological target: Gal(b1-4)GlcNAc
Method in brief: as §1

[21] = biological target: Gal(b1-4)GlcNAc(b1-2)Man(a1-3)[Gal(b1-4)GlcNAc(b1-2)Man(a1-6)]Man(b1-4)GlcNAc(b1-4)GlcNAc
Method in brief: as §1

[22] = biological target: Gal(b1-4)GlcNAc(b1-3)Gal(b1-3)GlcNAc
Method in brief: as §1

[23] = biological target: Gal(b1-4)GlcNAc(b1-3)Gal(b1-4)Glc
Method in brief: as §1

[24] = biological target: Gal(b1-4)GlcNAc(b1-3)Gal(b1-4)GlcNAc
Method in brief: as §1

[25] = biological target: Gal(b1-4)GlcNAc(b1-3)Gal(b1-4)GlcNAc(b1-3)Gal(b1-4)GlcNAc
Method in brief: as §1

[26] = biological target: Gal(b1-4)GlcNAc(b1-3)Gal(b1-4)[Fuc(a1-3)]GlcNAc(b1-3)Gal(b1-4)[Fuc(a1-3)]GlcNAc
Method in brief: as §1

[27] = biological target: Gal(b1-4)GlcNAc(b1-3)GalNAc
Method in brief: as §1

[28] = biological target: Gal(b1-4)GlcNAc(b1-3)[Gal(b1-4)GlcNAc(b1-6)]GalNAc
Method in brief: as §1

B1: LEA (Lycopersicon esculentum) (protein)
chain: NEVFDVPMNETIGVESINASVGGYPRCGAQGDGGNCPSGMCCSVWGWCGKTYGYCAPQNCQKQCPAPYPEGRCGWQADGKSCPNGKCCSYGGWCGTTSDYCARQNCQKQCILPSPPPPPPPPPGFPRPECGLQKNGERCTKPGECCSIWGLCGATYKYCDPQHCQKQCSAPFPPGRCGWQADGRPCPTGQCCSFSGWCGTTSAHCTYPQCVSQCNDPRFPSSLNNRIQSFML
For B1, which “glycan array binding signal (z-score)” value (Fuc(b1-3)GlcNAc) is on record?
The value was -0.538.

What about the “glycan array binding signal (z-score)” value (Gal(a1-2)Gal) of the same binder?
Its value is -0.553.

What about the “glycan array binding signal (z-score)” value (Gal(a1-3)Gal) of the same binder?
Its value is -0.553.

And the “glycan array binding signal (z-score)” value (Gal(a1-3)Gal(b1-3)Glc)?
The value was -0.529.

What about the “glycan array binding signal (z-score)” value (Gal(a1-3)Gal(b1-3)GlcNAc) of the same binder?
The value was -0.52.

What about the “glycan array binding signal (z-score)” value (Gal(a1-3)Gal(b1-4)GlcNAc) of the same binder?
The value was 2.22.

And the “glycan array binding signal (z-score)” value [1]?
The value was -0.559.

And the “glycan array binding signal (z-score)” value (Gal(a1-3)GlcNAc)?
The value was -0.543.

And the “glycan array binding signal (z-score)” value [2]?
The value was 1.96.

And the “glycan array binding signal (z-score)” value (Gal(a1-4)Gal(b1-4)Gal)?
The value was -0.546.

What about the “glycan array binding signal (z-score)” value (Gal(a1-4)Gal(b1-4)GalNAc) of the same binder?
The value was 2.17.

And the “glycan array binding signal (z-score)” value (Gal(a1-4)GlcNAc)?
The value was -0.545.

And the “glycan array binding signal (z-score)” value (Gal(a1-6)Glc)?
The value was -0.541.

What about the “glycan array binding signal (z-score)” value (Gal(b1-2)Gal) of the same binder?
Its value is -0.534.

What about the “glycan array binding signal (z-score)” value (Gal(b1-3)Gal) of the same binder?
The value was -0.537.

What about the “glycan array binding signal (z-score)” value (Gal(b1-3)GalNAc) of the same binder?
The value was -0.539.

And the “glycan array binding signal (z-score)” value [3]?
Its value is -0.547.

What about the “glycan array binding signal (z-score)” value [4] of the same binder?
Its value is -0.489.

What about the “glycan array binding signal (z-score)” value [5] of the same binder?
The value was 2.38.

What about the “glycan array binding signal (z-score)” value [6] of the same binder?
Its value is -0.552.

What about the “glycan array binding signal (z-score)” value [7] of the same binder?
The value was -0.548.

And the “glycan array binding signal (z-score)” value [8]?
The value was -0.561.

And the “glycan array binding signal (z-score)” value [9]?
The value was -0.546.

And the “glycan array binding signal (z-score)” value [10]?
Its value is -0.562.

What about the “glycan array binding signal (z-score)” value [11] of the same binder?
The value was -0.557.

What about the “glycan array binding signal (z-score)” value [12] of the same binder?
Its value is -0.546.

What about the “glycan array binding signal (z-score)” value [13] of the same binder?
Its value is -0.549.

What about the “glycan array binding signal (z-score)” value [14] of the same binder?
Its value is -0.566.

And the “glycan array binding signal (z-score)” value [15]?
Its value is -0.557.

What about the “glycan array binding signal (z-score)” value [16] of the same binder?
The value was -0.549.

What about the “glycan array binding signal (z-score)” value [17] of the same binder?
Its value is -0.546.

What about the “glycan array binding signal (z-score)” value [18] of the same binder?
The value was -0.549.

What about the “glycan array binding signal (z-score)” value [19] of the same binder?
Its value is 1.97.

And the “glycan array binding signal (z-score)” value [20]?
Its value is 2.17.

What about the “glycan array binding signal (z-score)” value (Gal(b1-4)Glc) of the same binder?
The value was -0.552.

What about the “glycan array binding signal (z-score)” value (Gal(b1-4)Glc6S) of the same binder?
Its value is -0.026.

What about the “glycan array binding signal (z-score)” value (Gal(b1-4)GlcNAc) of the same binder?
The value was 1.88.

What about the “glycan array binding signal (z-score)” value [21] of the same binder?
Its value is -0.492.

And the “glycan array binding signal (z-score)” value [22]?
The value was -0.542.

What about the “glycan array binding signal (z-score)” value [23] of the same binder?
Its value is -0.471.

And the “glycan array binding signal (z-score)” value [24]?
The value was 2.07.

And the “glycan array binding signal (z-score)” value [25]?
The value was 2.07.

And the “glycan array binding signal (z-score)” value [26]?
The value was -0.53.

And the “glycan array binding signal (z-score)” value [27]?
The value was -0.559.

What about the “glycan array binding signal (z-score)” value [28] of the same binder?
Its value is -0.527.
